Measurements from patent US6521602 (GPC BIOTECH, dated 2003).

Legend:
Assay in all cases: cell-based or functional assay
CDC2/cyclin B complex = CDC2/cyclin B complex (UniProt P06493)
CDK4/cyclin D1 complex = CDK4/cyclin D1 complex (UniProt P11802 1-303; P24385)
CDK2/cyclin E complex = CDK2/cyclin E complex (UniProt P24941)
CDK2/cyclin A complex = CDK2/cyclin A complex (UniProt P24941)

Chain of CDC2/cyclin B complex (P06493 whole entry, one chain of several): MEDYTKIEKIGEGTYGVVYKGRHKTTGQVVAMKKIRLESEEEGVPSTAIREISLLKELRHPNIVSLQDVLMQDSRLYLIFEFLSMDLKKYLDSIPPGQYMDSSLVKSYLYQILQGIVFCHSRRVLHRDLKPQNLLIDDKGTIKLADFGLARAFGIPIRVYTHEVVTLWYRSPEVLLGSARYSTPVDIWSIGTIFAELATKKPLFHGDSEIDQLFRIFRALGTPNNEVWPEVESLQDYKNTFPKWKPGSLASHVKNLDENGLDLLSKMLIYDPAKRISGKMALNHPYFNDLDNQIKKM
Chain of CDK4/cyclin D1 complex (P11802 whole entry, chain 1 of 2): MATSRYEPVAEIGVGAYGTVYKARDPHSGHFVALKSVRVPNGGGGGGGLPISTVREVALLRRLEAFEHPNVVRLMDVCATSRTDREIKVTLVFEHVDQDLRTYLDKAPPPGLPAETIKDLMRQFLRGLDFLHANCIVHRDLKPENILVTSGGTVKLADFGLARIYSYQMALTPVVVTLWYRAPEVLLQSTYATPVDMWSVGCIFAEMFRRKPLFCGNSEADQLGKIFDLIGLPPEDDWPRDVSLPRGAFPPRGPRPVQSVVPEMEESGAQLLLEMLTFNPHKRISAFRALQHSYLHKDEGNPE
Chain of CDK4/cyclin D1 complex (P24385 whole entry, chain 2 of 2, further chain): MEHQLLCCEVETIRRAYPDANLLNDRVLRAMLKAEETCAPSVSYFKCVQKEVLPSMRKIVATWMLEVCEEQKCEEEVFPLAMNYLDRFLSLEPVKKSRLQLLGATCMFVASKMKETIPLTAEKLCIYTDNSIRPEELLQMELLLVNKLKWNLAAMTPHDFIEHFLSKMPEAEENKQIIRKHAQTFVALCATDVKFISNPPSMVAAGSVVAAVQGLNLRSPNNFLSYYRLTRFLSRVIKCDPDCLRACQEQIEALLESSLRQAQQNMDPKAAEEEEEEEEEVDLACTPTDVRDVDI

B1: p27-p16 fusion protein (other)
chain: [letters of about 200 residues left out]MEPAAGSSMEPSADWLATAAARGRVEEVRALLEAGALPNAPNSYGRRPIQVMMMGSARVAELLLLHGAEPNCADPATLTRPVHDAAREGFLDTLVVLHRAGARLDVRDAWGRLPVDLAEELGHRDVARYLRAAAGGTRGSNHARIDAAEGPSDIPD
notes: Tags (6xHis, HA) may be present at the N-terminus; expressed as GST fusion, GST removed by thrombin; not shown: junction: (Gly4Ser)3 hinge in W3, none in W4
Q: For B1, which “IC50, in vitro kinase activity” value (CDC2/cyclin B complex) is on record?
A: 15 nM

Q: And the “IC50, in vitro kinase activity” value (CDK4/cyclin D1 complex)?
A: 25 nM

Q: What about the “IC50, in vitro kinase activity” value (CDK2/cyclin E complex) of the same binder?
A: 30 nM

Q: And the “IC50, in vitro kinase activity” value (CDK2/cyclin A complex)?
A: 25 nM
